Assay [1] deals with T1, Flag-TTP S316,318A (mouse) (UniProt P22893).
T1 sequence: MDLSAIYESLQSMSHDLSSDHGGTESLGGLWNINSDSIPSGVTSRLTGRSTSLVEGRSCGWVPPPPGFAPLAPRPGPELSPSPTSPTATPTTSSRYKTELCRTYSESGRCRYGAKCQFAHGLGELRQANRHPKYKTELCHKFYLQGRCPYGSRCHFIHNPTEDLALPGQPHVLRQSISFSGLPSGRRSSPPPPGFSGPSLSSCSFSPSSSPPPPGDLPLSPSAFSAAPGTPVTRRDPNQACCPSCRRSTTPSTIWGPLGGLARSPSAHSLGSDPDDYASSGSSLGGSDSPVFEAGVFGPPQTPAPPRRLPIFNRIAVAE
Description: co-IP; Flag-TTP constructs transfected into HEK293T; lysate in NET buffer (50 mM Tris pH 7.5, 150 mM NaCl, 1 mM EDTA, 0.1% Triton X-100) with protease and phosphatase inhibitors; anti-Flag M2 agarose, 4 °C, 2 h; blots for endogenous proteins; some panels after negative-control, CNOT6 or CNOT7 siRNA, or with or without 1 μM okadaic acid for 1 h.

Sequences of proteins named here, by UniProt entry; tags and fusion partners are left off.
UniProt P63101: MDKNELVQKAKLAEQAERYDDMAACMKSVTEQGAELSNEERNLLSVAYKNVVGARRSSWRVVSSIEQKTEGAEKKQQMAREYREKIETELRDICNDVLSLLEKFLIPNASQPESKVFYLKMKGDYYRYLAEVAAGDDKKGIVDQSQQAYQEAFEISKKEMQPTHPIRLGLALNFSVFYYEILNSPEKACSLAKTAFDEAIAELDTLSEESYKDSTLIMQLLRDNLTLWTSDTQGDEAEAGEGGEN
UniProt A5YKK6: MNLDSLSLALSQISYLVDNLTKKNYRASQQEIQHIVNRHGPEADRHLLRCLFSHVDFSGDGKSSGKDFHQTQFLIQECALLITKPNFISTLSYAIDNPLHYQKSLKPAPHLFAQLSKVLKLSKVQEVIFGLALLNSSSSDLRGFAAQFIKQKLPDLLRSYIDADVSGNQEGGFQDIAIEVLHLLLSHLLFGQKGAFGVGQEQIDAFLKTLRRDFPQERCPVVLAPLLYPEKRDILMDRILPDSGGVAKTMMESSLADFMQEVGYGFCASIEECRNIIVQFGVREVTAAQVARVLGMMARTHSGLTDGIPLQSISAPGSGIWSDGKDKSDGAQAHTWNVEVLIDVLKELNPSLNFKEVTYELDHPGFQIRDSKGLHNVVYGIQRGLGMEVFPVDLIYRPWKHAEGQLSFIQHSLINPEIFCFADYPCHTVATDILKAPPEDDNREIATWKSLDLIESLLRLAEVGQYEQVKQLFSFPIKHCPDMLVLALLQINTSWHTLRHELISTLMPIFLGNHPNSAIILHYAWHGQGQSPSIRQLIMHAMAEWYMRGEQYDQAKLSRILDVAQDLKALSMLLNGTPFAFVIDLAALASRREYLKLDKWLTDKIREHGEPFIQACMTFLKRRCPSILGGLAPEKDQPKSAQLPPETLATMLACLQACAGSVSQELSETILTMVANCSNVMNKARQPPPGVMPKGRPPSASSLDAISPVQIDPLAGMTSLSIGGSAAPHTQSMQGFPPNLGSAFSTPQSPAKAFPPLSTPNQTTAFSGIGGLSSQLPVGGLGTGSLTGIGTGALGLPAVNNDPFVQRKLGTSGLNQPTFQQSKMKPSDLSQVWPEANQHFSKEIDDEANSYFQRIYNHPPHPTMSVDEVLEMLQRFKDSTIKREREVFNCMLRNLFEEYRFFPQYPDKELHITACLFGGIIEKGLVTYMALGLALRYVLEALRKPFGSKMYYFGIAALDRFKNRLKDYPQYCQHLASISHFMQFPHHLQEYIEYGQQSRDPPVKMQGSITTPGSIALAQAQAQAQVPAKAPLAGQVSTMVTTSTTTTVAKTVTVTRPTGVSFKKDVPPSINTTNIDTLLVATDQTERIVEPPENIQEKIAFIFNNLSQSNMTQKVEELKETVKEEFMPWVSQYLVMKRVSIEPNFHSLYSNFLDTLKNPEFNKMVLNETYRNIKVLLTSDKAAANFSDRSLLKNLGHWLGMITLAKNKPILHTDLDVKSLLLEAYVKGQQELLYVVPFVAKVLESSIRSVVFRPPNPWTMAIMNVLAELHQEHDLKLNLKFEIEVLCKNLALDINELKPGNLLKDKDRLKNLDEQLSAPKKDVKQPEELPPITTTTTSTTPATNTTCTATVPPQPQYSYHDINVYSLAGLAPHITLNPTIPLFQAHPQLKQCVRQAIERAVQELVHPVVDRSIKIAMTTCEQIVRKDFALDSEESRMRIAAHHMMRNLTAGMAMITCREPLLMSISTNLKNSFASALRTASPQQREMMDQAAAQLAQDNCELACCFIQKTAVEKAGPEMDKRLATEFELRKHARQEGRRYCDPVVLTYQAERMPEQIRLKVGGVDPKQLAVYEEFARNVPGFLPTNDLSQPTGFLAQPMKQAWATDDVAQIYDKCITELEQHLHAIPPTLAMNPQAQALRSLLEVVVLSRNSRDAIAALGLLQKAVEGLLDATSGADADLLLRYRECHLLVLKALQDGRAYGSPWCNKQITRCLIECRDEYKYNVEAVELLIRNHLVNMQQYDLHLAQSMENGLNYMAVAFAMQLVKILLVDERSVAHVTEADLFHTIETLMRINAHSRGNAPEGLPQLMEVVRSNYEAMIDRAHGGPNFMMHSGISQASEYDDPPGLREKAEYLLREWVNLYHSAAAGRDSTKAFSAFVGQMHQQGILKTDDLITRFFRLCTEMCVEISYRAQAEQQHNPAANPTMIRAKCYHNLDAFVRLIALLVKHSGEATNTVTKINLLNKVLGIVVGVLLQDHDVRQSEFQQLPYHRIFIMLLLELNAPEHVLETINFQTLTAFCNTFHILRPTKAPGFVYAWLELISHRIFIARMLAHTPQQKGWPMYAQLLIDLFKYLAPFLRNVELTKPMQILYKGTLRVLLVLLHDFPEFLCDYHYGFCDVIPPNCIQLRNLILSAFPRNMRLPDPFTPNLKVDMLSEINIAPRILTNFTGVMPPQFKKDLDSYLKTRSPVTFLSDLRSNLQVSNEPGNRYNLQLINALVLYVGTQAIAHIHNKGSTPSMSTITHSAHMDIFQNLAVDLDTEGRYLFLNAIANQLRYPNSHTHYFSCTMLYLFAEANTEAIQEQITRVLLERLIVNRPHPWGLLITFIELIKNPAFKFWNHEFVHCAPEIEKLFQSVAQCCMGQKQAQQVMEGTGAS
UniProt O75175: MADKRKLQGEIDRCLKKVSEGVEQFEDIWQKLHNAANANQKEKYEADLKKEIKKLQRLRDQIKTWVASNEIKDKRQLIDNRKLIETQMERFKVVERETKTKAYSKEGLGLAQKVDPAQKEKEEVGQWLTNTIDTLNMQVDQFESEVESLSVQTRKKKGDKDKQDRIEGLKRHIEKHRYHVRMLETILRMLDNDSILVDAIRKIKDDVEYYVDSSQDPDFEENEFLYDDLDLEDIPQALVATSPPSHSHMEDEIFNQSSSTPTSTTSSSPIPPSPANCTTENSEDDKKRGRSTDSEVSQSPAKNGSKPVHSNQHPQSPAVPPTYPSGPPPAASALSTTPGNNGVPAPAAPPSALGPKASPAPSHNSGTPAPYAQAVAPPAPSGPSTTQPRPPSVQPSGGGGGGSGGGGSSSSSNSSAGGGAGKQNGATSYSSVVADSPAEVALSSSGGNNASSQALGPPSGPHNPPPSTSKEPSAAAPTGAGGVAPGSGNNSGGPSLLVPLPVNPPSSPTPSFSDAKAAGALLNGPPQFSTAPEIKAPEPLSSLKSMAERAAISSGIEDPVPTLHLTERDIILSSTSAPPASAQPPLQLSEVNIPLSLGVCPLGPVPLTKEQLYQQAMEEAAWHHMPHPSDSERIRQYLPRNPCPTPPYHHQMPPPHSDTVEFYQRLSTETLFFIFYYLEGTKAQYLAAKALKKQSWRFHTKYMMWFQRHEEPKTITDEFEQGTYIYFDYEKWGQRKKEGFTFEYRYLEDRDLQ

Assay [2] addresses T2, Flag-TTP wild-type (tristetraprolin) (mouse) (UniProt P22893).
T2 sequence: T1 sequence with A316S, A318S
Described as above.

The target in assay [3] is T3, Flag-TTP S52,178,316D (mouse) (UniProt P22893).
T3 sequence: T1 sequence with S52D, S178D, A316D, A318S
The description is as above.

Another assay addresses T4, Flag-TTP S318D (mouse) (UniProt P22893).
T4 sequence: T1 sequence with A316S, A318D
Described as above.

A further assay addresses T5, Flag-TTP S316D (mouse) (UniProt P22893).
T5 sequence: T1 sequence with A316D, A318S
The assay is described as above.

For assay [4], the target named is T6, Flag-TTP S52,178D (mouse) (UniProt P22893).
T6 sequence: T1 sequence with S52D, S178D, A316S, A318S
The description is as above.

Another assay concerns the target GST-14-3-3 (UniProt P63101). Description: pull-down; 2 μg GST fusion on Glutathione-Sepharose 4B; 300 μg lysate of RAW264.7 cells treated with 100 ng/ml LPS for 0, 1, 2, 4 h; 20 mM HEPES pH 7.9, 100 mM NaCl, 2.5 mM MgCl2, 0.1 mM EDTA, 0.05% NP-40, 1% Triton X-100; 4 °C, 2 h; washes with 0.2 M NaCl; blots with anti-TTP and anti-p-S316; only the target purified.

Where a chain is given by its changes, count along the chain named. No constants are given. Whether binding was seen depends on the method and setting. Binding seen in cells or lysates may run through a third protein. Some entries that bind do so weakly or less than the wild type. For some of these results: Sequences can lack the tags named with a protein.

Turning to “CCR4-NOT complex subunit 1 (CNOT1) (from UniProt A5YKK6 1-2376)”, the binding result is “binds” in assay [1]; “binds” in assay [2]; “no binding” in assay [3]; “binds” with Flag-TTP S318D (mouse); “binds weakly” in the assay with Flag-TTP S316D (mouse); “binds weakly” in assay [4].

Consider CNOT3 (from UniProt O75175 1-753), for which the binding entry in assay [1] and in assay [2] was “binds” in each case.

B1: Endogenous TTP of LPS-treated RAW264.7 cells (protein, UniProt P22893 1-319)
chain: T1 sequence with A316S, A318S
For the molecule B1, in the assay with GST-14-3-3, the binding result is recorded as “binds”.

B2: Endogenous TTP with Ser316 phosphorylation (LPS-treated RAW264.7 cells) (protein, UniProt P22893 1-319)
chain: T1 sequence with A316S, A318S
modifications: phosphoserine at 316
B2: the binding entry with GST-14-3-3 was “binds”.

(Values after article PMC8180021.)
